Experiment [1] addresses T1, IgV domain of mouse B7-H4-Fc (mouse; human).
T1 construct: also called mB7-H4 IgV domain
Description: ELISA on coated IgV domain of mB7-H4. As for the experimental part: (§1) About 1-2 μg/ml of human or mouse B7-H4-Fc (or his-tagged) was immobilized on ELISA plates (Immuno 2HB, Thermo scientific, cat #3455) at 4° C. overnight. After blocking the plates with 3% PBS+milk, serial diluted antibodies were added to the blocked plates and incubated at RT for 1-1.5 h. After washing the plates with PBS-T (0.05%), horse radish peroxidase (HRP)-conjugated antibody targeting the hFab was added to the plate. Signals were developed by adding 3,3′,5,5′-Tetramethylbenzidine (TMB (followed 1N of H₂SO₄ to stop the reaction. The OD at 450 nm was read by ELISA plate reader (Infinite M1000 from TECAN). GraphPad from Prism was used to plot OD450 vs. antibody concentration curve and to calculate the EC50 values.
A general note: An ELISA detects its analyte on a solid surface through an enzyme-linked reagent.

For experiment [2], the target named is T2, human B7-H4-his (human, UniProt Q7Z7D3 25-259).
T2 construct: also called hB7-H4-his; hB7-H4 his; not shown: his tag
T2 sequence: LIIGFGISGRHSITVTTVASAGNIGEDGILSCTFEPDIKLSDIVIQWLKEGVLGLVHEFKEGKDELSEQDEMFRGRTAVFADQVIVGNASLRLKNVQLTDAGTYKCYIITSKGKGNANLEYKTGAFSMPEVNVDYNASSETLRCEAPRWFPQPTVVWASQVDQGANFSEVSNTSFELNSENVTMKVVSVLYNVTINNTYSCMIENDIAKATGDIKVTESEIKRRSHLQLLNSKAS
Description: SPR (Biacore). How it is done: (§2) Surface plasmon resonance experiments were performed using a Biacore T200 instrument equipped with CM5 sensor chips. The system was equilibrated in running buffer HBS-EP pH 7.4. The ligands were immobilized using amine-coupling chemistry. The surfaces of flow cells one through four were activated for 5 min using an amine coupling kit at a flow rate of […]. The ligands (human B7-H4-Fc, human B7-H4-hism and mouse B7-H4-Fc; at a concentration of 5 μg/ml in 10 mM sodium acetate, pH 5.0) were immobilized at a density of 50-100 RU on flow cell 2, 3, 4 respectively. Flow cell 1 was left blank to serve as a reference surface. All flow cell surfaces were blocked with a 5 min injection of 1 M ethanolamine, pH 8.0. To collect kinetic binding data, the respective analyte (diluted in 1×HBS-EP buffer, pH 7.4) was injected over the four flow cells at concentrations of 100 nM to 0.1 nM at a flow rate of […] and at a temperature of 25° C. The protein complex was allowed to associate and dissociate for 180 seconds and 1000 or 1200 seconds, respectively. The surfaces were regenerated with a 30 second injection of 1.5 M NaCl/0.05 M NaOH. The data were fit to a simple 1:1 interaction model using the Langmuir fit option available within the Biaevaluaton software
(SPR reads the build-up and loss of mass on a sensor chip optically.)

Experiment [3] concerns the target T3, human B7-H4-Fc (human).
T3 construct: also called hB7-H4-Fc; hB7-H4 Fc
Kind of experiment: SPR (Biacore). How it is done: as §2

In experiment [4] the target is T4, IgV domain of human B7-H4-Fc (human).
T4 construct: also called hB7-H4 IgV domain
Description: ELISA on coated IgV domain of hB7-H4. As for the experimental part:
as §1

Experiment [5] deals with T5, human B7-H4 expressed on cells (human, UniProt Q7Z7D3 25-282).
T5 construct: Transfected CHO cells or tumor cell lines that carry hB7-H4; also called cellular hB7-H4
T5 sequence: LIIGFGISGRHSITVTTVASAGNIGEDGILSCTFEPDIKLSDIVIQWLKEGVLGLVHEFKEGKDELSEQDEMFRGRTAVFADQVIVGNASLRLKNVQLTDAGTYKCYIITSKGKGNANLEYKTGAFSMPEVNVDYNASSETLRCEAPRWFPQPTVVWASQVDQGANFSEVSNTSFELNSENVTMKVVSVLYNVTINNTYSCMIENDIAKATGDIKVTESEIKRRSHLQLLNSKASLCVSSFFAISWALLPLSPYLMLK
Description: flow cytometry, MDA-MB-468 cells. As for the experimental part:
(§3) Cells were harvested, washed once, and then re-suspended to the concentration of 1×10⁶ cells/ml in ice cold FACS Buffer. 25 μl of cell suspension was added to each well of a 96-well round-bottom microliter plate. Serially diluted antibodies or fusion proteins were added to each well and incubated for 1 hour at 4° C. Cells were washed three times by centrifugation at 1500 rpm for 5 minutes, and then stained with secondary antibody (1:200 dilution) for 30 min at 4° C. in the dark. Cells were washed once, re-suspended in 100 μl PBS buffer and then analyzed using Guava Flow Cytometry EasyCyte system.
On the technique in general: Flow cytometry measures light scatter and fluorescence of single cells or particles in a stream.

Experiment [6] deals with T6, mouse B7-H4-his (mouse, UniProt Q7TSP5 25-257).
T6 construct: also called mB7-H4-his; mB7-H4-His; not shown: his tag
T6 sequence: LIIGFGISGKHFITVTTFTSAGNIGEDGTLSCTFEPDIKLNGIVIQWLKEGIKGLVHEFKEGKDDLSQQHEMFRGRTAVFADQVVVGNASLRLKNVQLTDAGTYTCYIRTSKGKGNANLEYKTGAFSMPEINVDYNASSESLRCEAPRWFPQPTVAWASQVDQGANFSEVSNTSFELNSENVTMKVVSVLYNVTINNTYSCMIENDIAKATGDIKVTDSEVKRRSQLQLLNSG
Description: ELISA on coated mB7-H4-his. How it is done: as §1

For experiment [7], the target named is T5, human B7-H4 expressed on cells. Kind of experiment: flow cytometry, MX-1 cells. How it is done: as §3
In experiment [8] the target is T2, human B7-H4-his. Description: ELISA on coated hB7-H4-his. As for the experimental part: as §1
Experiment [9] addresses T7, mouse B7-H4-Fc (mouse; human).
T7 construct: also called mB7-H4-Fc; mB7-H4-hFc
Kind of experiment: ELISA on coated mB7-H4-Fc. How it is done: as §1

Experiment [10] has as its target T3, human B7-H4-Fc. Kind of experiment: ELISA on coated hB7-H4-Fc. How it is done: as §1
For experiment [11], the target named is T3, human B7-H4-Fc. Description: ELISA on coated human B7-H4Fc. How it is done: as §1
T3 sequence (chain, as listed by the source): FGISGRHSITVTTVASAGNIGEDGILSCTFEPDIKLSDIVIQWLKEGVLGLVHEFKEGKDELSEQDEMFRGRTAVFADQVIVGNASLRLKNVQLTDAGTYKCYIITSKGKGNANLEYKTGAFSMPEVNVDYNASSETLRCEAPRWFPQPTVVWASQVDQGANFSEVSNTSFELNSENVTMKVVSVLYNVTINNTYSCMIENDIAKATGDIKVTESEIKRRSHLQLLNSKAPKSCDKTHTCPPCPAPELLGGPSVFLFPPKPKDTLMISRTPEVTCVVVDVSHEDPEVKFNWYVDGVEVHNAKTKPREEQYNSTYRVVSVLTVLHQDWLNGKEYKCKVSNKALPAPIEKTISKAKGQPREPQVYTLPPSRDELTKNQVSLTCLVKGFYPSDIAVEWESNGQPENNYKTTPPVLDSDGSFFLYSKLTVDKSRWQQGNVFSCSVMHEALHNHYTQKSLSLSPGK

B1: 3F2/50A10-IL15 (other)
heavy 1: QVQLVQSGAEVKKPGASVKVSCKASGYTFTAQYMYWVRQAPGQGLEWMGRINPTSGNTVYAQKLQGRVTMTRDTSTSTVYMELSSLRSEDTAVYYCARGINWFDPWGQGTLVTVSS[letters of human IgG1 constant region with changes not shown]
heavy 2: QVQLVQSGAEVKKPGASVKVSCKASGYTFTAQYMYWVRQAPGQGLEWMGRINPTSGNTVYAQKLQGRVTMTRDTSTSTVYMELSSLRSEDTAVYYCARGINWFDPWGQGTLVTVSSASTKGPSVFPLAPSSKSTSGGTAALGCLVKDYFPEPVTVSWNSGALTSGVHTFPAVLQSSGLYSLSSVVTVPSSSLGTQTYICNVNHKPSNTKVDKKV[letters of human IgG1 Fc with changes not shown]CPPPMSVEHADIWVKSYSLYSRERYICNSGFKRKAGTSSLTECVLNKATNVAHWTTPSLKCIRDPALVHQRPAPPSGGSGGGGSGGGSGGGGSLQ[letters of about 120 residues not shown]
light: DIQMTQSPSSLSASVGDRVTITCQASQDISNYINWYQQKPGKAPKLLIYAASRLQSGVPSRFSGSGSGTDFTLTISSLQPEDFATYYCQQSYRSPFTFGQGTKLEIKRTVAAPSVFIFPPSDEQLKSGTASVVCLLNNFYPREAKVQWKVDNALQSGNSQESVTEQDSKDSTYSLSSTLTLSKADYEKHKVYACEVTHQGLSSPVTKSFNRGEC
notes: also called 50A10/IL115
One may read the Kd as the equilibrium constant for the complex coming apart. Low readings indicate higher affinity, high ones lower affinity. By EC50 (read off the curve) is commonly meant the concentration that produces a half-maximal response. By EC50 is commonly meant the concentration at which the effect is half-maximal. The low end stands for an effect from little substance, the high end for a need for much substance. B1: the binding result in experiment [1], in [6] and in [9] was “no binding (tested: 10 nM)” throughout. Also, the Kd worked out at 0.0259 nM in experiment [2] and 0.101 nM in experiment [3]. Further, the “EC50 (read off the curve)” value in experiment [4] is about 0.1 nM; in experiment [8], about 0.1 nM; in [10], about 0.09 nM; in experiment [11], about 0.2 nM. The EC50 in experiment [5] turned out to be 0.398 nM; in experiment [7], 0.162 nM.

(Values after US20230312724A1 (KADMON, published 2023).)
